The values that follow come from the supplement of paper PMC6609913.

This assay relates to V-C8 + BRCA2 (BRCA2-proficient hamster cells). Nature of the assay: normalised cell viability (fraction of plate median); higher = more viable cells (less toxic). The settings on record: 5 µM. In outline:
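Hamster V-C8 cells with and without restored BRCA2 were exposed in 96-well plates to library drugs at 5 μM for 3 days (screen 1) or 6 days (screen 2). Cell viability was scored by resazurin assay, then median-plate normalised, averaging triplicate wells.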

Where a name gives a salt, the structure may show the parent alone. ± gives the standard deviation of the averaged measurements. In all, about 1,300 compounds were measured (“normalised cell viability”: median about 1, lowest 2% from about 0.15 on). The list shows a part of the results.

With `O=P1(N(CCCl)CCCl)NCCCO1` (stereo not drawn) [Cyclophosphamide], the normalised cell viability by setting is: (treatment time: 3 days) 1.07 ± 0.025; (treatment time: 6 days) 1.01 ± 0.027.
For `CN1C(=O)CCS(=O)(=O)C1c1ccc(Cl)cc1` (stereo not drawn) [Chlormezanone], the normalised cell viability (treatment time: 3 days) turned out to be 1.2 ± 0.17 and the normalised cell viability (treatment time: 6 days) stood at 1.03 ± 0.012.
On the same counts, the results for `C[C@]12C/C(=C/O)C(=O)C[C@@H]1CC[C@@H]1[C@@H]2CC[C@@]2(C)[C@H]1CC[C@]2(C)O` [Oxymetholone] are 1.1 ± 0.033 and 1.01 ± 0.049.
The corresponding values for `CC(=O)[C@H]1CC[C@H]2[C@@H]3CC[C@H]4C[C@H](O)CC[C@]4(C)[C@H]3C(=O)C[C@]12C` [Alfaxalone] are 1.07 ± 0.031 and 1.03 ± 0.051.
Regarding `C=C1C[C@@H]2[C@H](CC[C@]3(C)C(=O)CC[C@@H]23)[C@@]2(C)C=CC(=O)C=C12` [Exemestane], the normalised cell viability (treatment time: 3 days) was 0.972 ± 0.11 and the normalised cell viability (treatment time: 6 days) came to 0.975 ± 0.044.
On the same counts, the results for `COc1ccc(C(CN(C)C)C2(O)CCCCC2)cc1` (stereo not drawn) [Venlafaxine] are 1.01 ± 0.061 and 0.755 ± 0.023.
The corresponding values for `CNC(=O)Oc1ccc2c(c1)[C@]1(C)CCN(C)[C@@H]1N2C` [Eserine sulfate, physostigmine sulfate] are 0.891 ± 0.018 and 0.91948 ± 0.00047.
On the same counts, the results for `CN(C)C(=O)Oc1cccc([N+](C)(C)C)c1` [Neostigmine bromide] are 1.15 ± 0.06 and 1.03 ± 0.075.
For the compound `CC(C)(N)Cc1ccccc1` [Phentermine hydrochloride], the normalised cell viability came out at 1 ± 0.041 (treatment time: 3 days) and 0.995 ± 0.023 (treatment time: 6 days).
On the same counts, the results for `CCNCC(O)c1cccc(O)c1` (stereo not drawn) [Etilefrine hydrochloride] are 0.953 ± 0.077 and 1.01 ± 0.036.
The corresponding values for `CCC1=C[C@H]2CN3CCc4c([nH]c5ccccc45)[C@](C(=O)OC)(C2)[C@H]13` [Catharanthine] are 0.992 ± 0.023 and 1.03 ± 0.059.
The corresponding values for `CC(C)C[C@H]1C(=O)N2CCC[C@H]2[C@]2(O)O[C@](NC(=O)[C@@H]3C=C4c5cccc6[nH]c(Br)c(c56)C[C@H]4N(C)C3)(C(C)C)C(=O)N12` [Bromocryptine mesylate] are 0.854 ± 0.021 and 0.862 ± 0.054.
With `CN1[C@@H]2CC[C@H]1C[C@@H](OC(=O)C(CO)c1ccccc1)C2` (stereo partly drawn) [Atropine sulfate monohydrate], the normalised cell viability turned out to be 0.925 ± 0.033 (treatment time: 3 days) and 0.988 ± 0.053 (treatment time: 6 days).
For the compound `CNC(C)(C)Cc1ccccc1` [Mephentermine hemisulfate], the normalised cell viability runs as follows: (treatment time: 3 days) 0.958 ± 0.013; (treatment time: 6 days) 0.937 ± 0.06.
`C[C@]12CCC(=O)C(O)=C1CC[C@@H]1[C@@H]2CC[C@]2(C)C(=O)CC[C@@H]12` [Formestane]: the normalised cell viability runs as follows: (treatment time: 3 days) 1.033 ± 0.0053; (treatment time: 6 days) 1.03 ± 0.064.
With `NCCCNCCSP(=O)(O)O` [Amifostine], the normalised cell viability by setting is: (treatment time: 3 days) 1.03 ± 0.045; (treatment time: 6 days) 0.999 ± 0.085.
On the same counts, the results for `CC1OC(OC2/C=C/C=C/C=C/C=C/CC/C=C/C=C/[C@H](C)[C@@H](O)[C@@H](C)[C@H](C)OC(=O)CC(O)CC(O)CC(O)CCC(O)C(O)C[C@]3(O)CC(O)C(C(=O)O)C(C2)O3)C(O)C(N)C1O` (stereo partly drawn) [Nystatine] are 1.02 ± 0.064 and 0.954 ± 0.047.
For the compound `NCCC(O)C(=O)NC1CC(N)C(OC2OC(CN)C(O)[C@H](O)[C@@H]2N)[C@H](OC2O[C@H](CO)[C@@H](O)[C@@H]2O)[C@@H]1O` (stereo partly drawn) [Butirosin disulfate salt], the normalised cell viability (treatment time: 3 days) was determined as 0.979 ± 0.026 and the normalised cell viability (treatment time: 6 days) came out at 0.868 ± 0.3.
On the same counts, the results for `O=c1[nH]c2ccccc2n1C1CCN(CCCC(c2ccc(F)cc2)c2ccc(F)cc2)CC1` [Pimozide] are 0.754 ± 0.051 and 0.765 ± 0.043.
Turning to `C#CCN(C)[C@H](C)Cc1ccccc1` [Selegiline hydrochloride], the normalised cell viability (treatment time: 3 days) came to 1.07 ± 0.062 and the normalised cell viability (treatment time: 6 days) came to 1.06 ± 0.077.
Turning to `C[C@@H]1O[C@@H](O[C@@H]2C=C3CC[C@@H]4[C@H](CC[C@]5(C)[C@@H](c6ccc(=O)oc6)CC[C@]45O)[C@@]3(C)CC2)[C@H](O)[C@H](O)[C@H]1O` [Proscillaridin A], the normalised cell viability is 0.978 ± 0.013 (treatment time: 3 days) and 1.02 ± 0.11 (treatment time: 6 days).
Take `C[C@]12CC[C@@H](O)C[C@H]1CC[C@@H]1[C@@H]2CC[C@]2(C)C(=O)CC[C@@H]12` [3-alpha-Hydroxy-5-beta-androstan-17-one]: the normalised cell viability worked out at 1.03 ± 0.037 (treatment time: 3 days) and 1 ± 0.028 (treatment time: 6 days).
With `CN1[C@@H]2C[C@@H](OC(=O)[C@H](CO)c3ccccc3)C[C@H]1[C@@H]1O[C@@H]12` [Scopolamine hydrochloride], the normalised cell viability runs as follows: (treatment time: 3 days) 0.982 ± 0.13; (treatment time: 6 days) 0.993 ± 0.032.
Turning to `C#C[C@]1(O)CC[C@H]2[C@@H]3CCC4=CC(=O)CCC4=C3C=C[C@@]21CC` [Gestrinone], the normalised cell viability (treatment time: 3 days) was found to be 1.14 ± 0.24 and the normalised cell viability (treatment time: 6 days) was found to be 1.03 ± 0.039.
On the same counts, the results for `N[C@@H]1C[C@H]1c1ccccc1` [Tranylcypromine hydrochloride] are 0.9796 ± 0.0062 and 0.946 ± 0.022.
Turning to `NCC(CC(=O)O)c1ccc(Cl)cc1` (racemic) [Baclofen (R,S)], the normalised cell viability is, setting by setting: (treatment time: 3 days) 0.897 ± 0.079; (treatment time: 6 days) 0.956 ± 0.083.
On to `CN[C@@H]1[C@@H](O)[C@@H](O[C@@H]2[C@@H](O)[C@H](O[C@H]3O[C@H](CN)CC[C@H]3N)[C@@H](N)C[C@H]2N)OC[C@]1(C)O.CN[C@@H]1[C@@H](O)[C@@H](O[C@@H]2[C@@H](O)[C@H](O[C@H]3O[C@H]([C@@H](C)N)CC[C@H]3N)[C@@H](N)C[C@H]2N)OC[C@]1(C)O.CN[C@@H]1[C@@H](O)[C@@H](O[C@@H]2[C@@H](O)[C@H](O[C@H]3O[C@H]([C@@H](C)NC)CC[C@H]3N)[C@@H](N)C[C@H]2N)OC[C@]1(C)O` [Gentamicine sulfate], for which the normalised cell viability is, setting by setting: (treatment time: 3 days) 0.891 ± 0.023; (treatment time: 6 days) 0.944 ± 0.062.
With `O=C1CC[C@@]2(O)[C@H]3Cc4ccc(O)c5c4[C@@]2(CCN3CC2CC2)[C@H]1O5` [Naltrexone hydrochloride dihydrate], the normalised cell viability stood at 1.19 ± 0.059 (treatment time: 3 days) and 1.09 ± 0.065 (treatment time: 6 days).
`CN1CCC2(C)c3cc(O)ccc3N(C)C12` (single isomer, unassigned; (-)) [(-)-Eseroline fumarate salt]: the normalised cell viability reads like this: (treatment time: 3 days) 0.694 ± 0.028; (treatment time: 6 days) 0.769 ± 0.015.
